Among all 220,000 compounds or so, about 5,700 (2.6%) were called active. The shares of active, inactive and inconclusive entries below differ from those in the screen. Calls follow the shape of the dose curve; as a rule, active = well fitted inhibition curve with a large enough effect; inconclusive = small, poorly fitted or top-dose-only effect; inactive = no such curve, though single readings can be large or run the other way. A potency beside an inconclusive call is a rough fit, not a confirmed value.
target: Lysine-specific demethylase 5B (Homo sapiens) (UniProt Q9UGL1); test: Primary screen for KDM5B Histone Demethylases FDH-coupled qHTS; conditions: FDH-coupled NADH fluorescence (FDH is formaldehyde dehydrogenase); series mostly up to 57.7 µM; also: nearly all actives have a fitted effect of over 70% in size
UniProt Q9UGL1, sequence (Q9UGL1 whole entry, looked up): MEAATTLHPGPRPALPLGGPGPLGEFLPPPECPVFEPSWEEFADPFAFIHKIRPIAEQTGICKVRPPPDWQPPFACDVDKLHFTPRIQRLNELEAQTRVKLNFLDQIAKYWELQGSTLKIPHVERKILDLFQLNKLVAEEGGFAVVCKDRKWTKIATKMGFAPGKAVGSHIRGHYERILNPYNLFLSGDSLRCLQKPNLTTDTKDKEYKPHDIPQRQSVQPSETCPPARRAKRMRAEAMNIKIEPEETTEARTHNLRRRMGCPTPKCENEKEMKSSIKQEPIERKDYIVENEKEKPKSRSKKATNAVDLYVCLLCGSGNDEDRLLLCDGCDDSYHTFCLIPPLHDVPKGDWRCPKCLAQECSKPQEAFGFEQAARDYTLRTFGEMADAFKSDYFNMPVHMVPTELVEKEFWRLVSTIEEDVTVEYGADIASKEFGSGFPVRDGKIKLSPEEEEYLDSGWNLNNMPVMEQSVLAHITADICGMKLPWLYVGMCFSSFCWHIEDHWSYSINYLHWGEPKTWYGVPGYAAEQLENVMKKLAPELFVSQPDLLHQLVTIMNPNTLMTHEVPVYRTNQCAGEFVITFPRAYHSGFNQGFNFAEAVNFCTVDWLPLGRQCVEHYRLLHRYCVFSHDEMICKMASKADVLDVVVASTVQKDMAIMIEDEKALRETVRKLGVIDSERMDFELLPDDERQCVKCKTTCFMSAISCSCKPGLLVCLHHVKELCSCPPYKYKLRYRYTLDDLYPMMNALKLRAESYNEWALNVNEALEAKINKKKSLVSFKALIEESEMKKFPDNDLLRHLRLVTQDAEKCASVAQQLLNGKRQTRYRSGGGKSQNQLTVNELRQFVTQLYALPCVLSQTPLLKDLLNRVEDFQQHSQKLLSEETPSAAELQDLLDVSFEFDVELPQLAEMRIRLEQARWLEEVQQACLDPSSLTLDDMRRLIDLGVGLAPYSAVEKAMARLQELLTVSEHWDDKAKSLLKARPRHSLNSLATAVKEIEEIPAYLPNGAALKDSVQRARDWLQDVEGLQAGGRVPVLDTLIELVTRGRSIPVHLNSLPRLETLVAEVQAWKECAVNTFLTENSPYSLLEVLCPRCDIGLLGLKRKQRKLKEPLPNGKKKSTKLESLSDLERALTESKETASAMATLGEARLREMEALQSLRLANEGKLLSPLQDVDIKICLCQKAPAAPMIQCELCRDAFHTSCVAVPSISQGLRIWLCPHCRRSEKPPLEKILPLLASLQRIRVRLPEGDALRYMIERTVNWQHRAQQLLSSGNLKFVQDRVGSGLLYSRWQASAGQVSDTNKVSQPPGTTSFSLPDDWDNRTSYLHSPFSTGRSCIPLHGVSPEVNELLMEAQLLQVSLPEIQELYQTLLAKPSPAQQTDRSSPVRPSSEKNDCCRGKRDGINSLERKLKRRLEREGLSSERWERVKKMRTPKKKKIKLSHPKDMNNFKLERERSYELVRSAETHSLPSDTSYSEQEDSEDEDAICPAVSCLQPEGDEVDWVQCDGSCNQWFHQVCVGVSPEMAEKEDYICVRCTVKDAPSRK
Summary of the method: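 KDM5BΔAP (200 nM final) in 50 mM HEPES pH 7.5, 0.01% Tween-20 was preincubated 10 min at RT with compound over a concentration range. Substrate mix (H3K4me3 12.5 µM, α-KG 25 µM, Fe²⁺, ascorbate, NAD⁺, FDH) was added, and NADH fluorescence change over 30 min gave dose-response curves.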
Potency is read from the fitted curve at half-maximal effect; tags tell the direction and shape of the fitted curve.

Row | Structure (SMILES) | Potency
1 | O=C(Cn1c2c(c(-c3ccccc3Cl)cc1=O)CCC2)NCC1CCCO1 (stereo not given) | inconclusive: 25.1 µM [inhibitor, partial curve, poor fit]
2 | CC(NCc1ccc2c(c1)n(C)c(=O)n2C)c1ccccc1 (stereo not given) | inconclusive: 44.7 µM [inhibitor, single point]
3 | O=C1NCCCCCCN(Cc2ccccc2)[C@H]2CCC[C@@H]12 | active: 8.91 µM
4 | CC(Oc1ccc(C(=O)/C=C/c2ccsc2)cc1)C(=O)O (stereo not given) | inconclusive: 14.1 µM [inhibitor, partial curve, poor fit]
5 | COc1ccccc1-c1ccnc(N[C@H]2CO[C@H]3[C@@H]2OC[C@@H]3NS(C)(=O)=O)n1 | active: 35.5 µM
6 | Cc1ccc(C)c(CSc2cn(CC(=O)N3CCCC3)c3ccccc23)c1 | inconclusive: 28.2 µM [inhibitor, partial curve, poor fit]
7 | COC(=O)CNC(=O)CSc1nnc2cc(C)c3ccccc3n12 | inconclusive: 25.1 µM [inhibitor, partial curve, poor fit]
8 | COc1ccc2c(C)c(CCC(=O)NCc3ccccc3)c(=O)oc2c1C | inconclusive: 1 µM [inhibitor, full curve, poor fit]
9 | Cc1ccc(-c2nnn(CC(=O)N3N=C(c4cccs4)CC3c3cccs3)n2)cc1 (stereo not given) | inconclusive: 2 µM [inhibitor, full curve, poor fit]
10 | COCC(=O)Nc1ccc(-c2noc([C@@H]3CCCN3Cc3cc4ccccc4o3)n2)cn1 | active: 31.6 µM
11 | Cc1noc(-c2ccn3c(CNC(=O)Cc4ccc(OC(F)(F)F)cc4)nnc3c2)n1 | inconclusive: 5.01 µM [inhibitor, full curve, poor fit]
12 | COC[C@@H]1CN(C(=O)c2ccc(OC)cc2C)C[C@H]1c1ccncc1 | inactive
13 | O=C(CN1CCN(C(=O)c2cc(-c3ccncc3)nc3ccccc23)CC1)N1CCOCC1 | inactive
14 | Cc1ccsc1CN1CCCCC12Cc1ccccc1CNC2=O (stereo not given) | inconclusive: 14.1 µM [inhibitor, partial curve, poor fit]
15 | CCOc1ccc(C(O)Cn2ccn3nc(-c4ccccc4C)cc3c2=O)cc1 (stereo not given) | inconclusive: 20 µM [inhibitor, partial curve]
16 | O=C(c1ccccc1OCc1ccccc1)N1CCC2(CC1)[C@H](O)C[C@@H]2O | inactive
17 | CC(C)(C)CC(=O)N1CC[C@@H](CC(=O)O)[C@@H](CCN2CCN(c3ccccc3)CC2)C1 | inconclusive: 31.6 µM [inhibitor, partial curve]
18 | CC(C)[C@H](NC(=O)c1cc2cc(Cl)ccc2n1C)C(=O)N[C@@H](C(=O)O)c1ccccc1 | inconclusive: 39.8 µM [inhibitor, single point]
19 | Cc1nn(C)c2c1c(-c1ccccc1)cc(=O)n2Cc1ccc(F)cc1Cl | inconclusive: 39.8 µM [inhibitor, single point]
20 | CCN(C(=O)Cn1c(=O)n(CCC(=O)Nc2ccc(F)cc2)c(=O)c2sccc21)c1ccccc1 | inactive
21 | O=C(O)CCC(=O)N1Cc2ccccc2CC2(CCCN2Cc2ccncc2)C1 (stereo not given) | inconclusive: 50.1 µM [inhibitor, partial curve, poor fit]
22 | COCCCNC(=S)NNC(=O)c1csc(C)n1 | inconclusive: 28.2 µM [inhibitor, single point]

Row | Structure (SMILES) | Potency
23 | O=C(Nc1cccc(S(=O)(=O)NC2CC2)c1)c1cccc2cccnc12 | inactive
24 | COc1ccc(C)cc1NC(=O)c1ccc2c(c1)C(O)CCCCCN2C (stereo not given) | inconclusive: 35.5 µM [inhibitor, partial curve, poor fit]
25 | O=C1c2ccccc2-c2onc3c(N4CCN(C5CCCCC5)CC4)cc(NCCO)c1c23 | inconclusive: 3.98 µM [inhibitor, full curve, poor fit]
26 | Cc1nn(C)c(C(=O)N[C@H]2CCOC[C@H]2C2CCOCC2)c1Cl | inactive
27 | O=C(c1cccc(F)c1)N1CCN(C(=O)c2cc3nc(-c4ccco4)cc(C(F)(F)F)n3n2)CC1 | inconclusive: 22.4 µM [inhibitor, partial curve, poor fit]
28 | Cc1ccc(-c2cn3c(n2)sc2cc(C(=O)NCCCN4CCCCCC4)ccc23)cc1 | inconclusive: 17.8 µM [inhibitor, partial curve, poor fit]
29 | COCCN1Cc2nc(-c3cccc(OC(F)(F)F)c3)ccc2OCC1=O | inactive
30 | O=C(O)CCCc1ccc2ccc3cccc4ccc1c2c34 | inconclusive: 28.2 µM [inhibitor, partial curve, poor fit]
31 | CCCN(CCC)C(=O)c1cc2c(=O)n3cccc(C)c3nc2s1 | inconclusive: 31.6 µM [inhibitor, partial curve, poor fit]
32 | COc1cccc(N2C(=O)NC(=NC3CCCC3)C23CCN(Cc2cccn2C)C3)c1 (stereo not given) | inconclusive: 44.7 µM [inhibitor, partial curve, poor fit]
33 | CCc1ccc2oc(C(=O)N(Cc3ccc(N(C)C)cc3)Cc3ccco3)c(C)c2c1 | inconclusive: 28.2 µM [inhibitor, partial curve, poor fit]
34 | CNC(C)c1ccncc1 (stereo not given) | active: 15.8 µM
35 | CCC(=O)N1CCCCCCNC(=O)[C@@H]2C[C@@H](C(=O)N3CCN(c4ccccn4)CC3)C[C@@H]21 | active: 28.2 µM
36 | C=CCNC(=O)COC(=O)c1cc(-c2ccc(Cl)s2)nc2ccccc12 | inactive
37 | O=c1n(-c2ccc(F)cc2F)nc2n1CCN([S+](=O)([O-])c1cccc(C(F)(F)F)c1)C2 | inactive
38 | Cc1ccc(NC(=O)Cn2ccn3nc(-c4ccc(F)cc4)c(CO)c3c2=O)c(C)c1 | inconclusive: 25.1 µM [inhibitor, single point]
39 | O=[N+]([O-])c1ccc2nc(C(F)(F)F)[nH]c2c1 | inactive
40 | Cc1noc(-c2ccc3c(c2)OCO3)c1C(=O)NC(C)CCc1ccccc1 (stereo not given) | active: 28.2 µM
41 | CCOc1ccc(NC(=O)CSC2=Nc3ccccc3C3=NC(CC(=O)NCc4cccs4)C(=O)N23)cc1 (stereo not given) | inconclusive: 39.8 µM [inhibitor, single point]
42 | Cc1cc(C(=O)N2CCC(c3noc(-c4cnccn4)n3)C2)nn1C (stereo not given) | inactive
43 | COc1cc(-c2cc(OC)c3c(C)oc(C)c3c(=O)c2)ccc1OC(=O)c1ccc(C)cc1 | inconclusive: 15.8 µM [inhibitor, partial curve, poor fit]
44 | O=c1cc(-c2cccnc2)oc2c(-c3cn[nH]c3)nccc12 | inconclusive: 35.5 µM [inhibitor, single point]

Row | Structure (SMILES) | Potency
45 | O=C(NCCc1cnc[nH]1)C1CCN(C2CCCCC2)CC1 | inactive
46 | Cc1cc(NC(=O)Cn2ccn3nc(-c4ccc(F)cc4)c(CO)c3c2=O)no1 | inconclusive: 28.2 µM [inhibitor, single point]
47 | O=C1[C@H]2CN(Cc3ccc(Cl)cc3)C[C@H]2C(=O)N1CCN1CCc2ccccc2C1 | inconclusive: 20 µM [inhibitor, partial curve, poor fit]
48 | O=C1CCCC2=C1C(c1ccco1)Nc1ccc3ccccc3c12 (stereo not given) | inconclusive: 2 µM [inhibitor, full curve, poor fit]
49 | COc1cccc(C2C3=C(CC(C)(C)CC3=O)Nc3cc(OC)c(OC)cc32)c1 (stereo not given) | inconclusive: 25.1 µM [inhibitor, partial curve, poor fit]
50 | CSC[C@H](NC(=O)COc1cc2c(c3oc(=O)c(C)c(C)c13)CCC(C)(C)O2)C(=O)O | inconclusive: 2 µM [inhibitor, full curve, poor fit]
51 | Cc1ccc(NC(=O)Nc2ccc(C)n(CC(=O)Nc3ccc(C)c(C)c3)c2=O)cc1 | inconclusive: 39.8 µM [inhibitor, single point]
52 | N#Cc1c2n(c(=O)n(CCOc3cccc(F)c3)c1=O)CCC2 | inactive
53 | CC(Oc1ccccc1)C(=O)Nc1ccc(OCc2ccccc2)cc1 (stereo not given) | inactive
54 | Cc1c(-c2ccccc2)c(=O)oc2ccc(OC(=O)N3CCOCC3)cc12 | inconclusive: 35.5 µM [inhibitor, single point]
55 | Cc1cc(C)cc(OCCSc2nc3ccc(NC(=O)c4cccs4)cc3s2)c1 | inconclusive: 31.6 µM [inhibitor, partial curve, poor fit]
56 | NCc1ccccc1-c1cnc2ccccc2c1 | inconclusive: 50.1 µM [inhibitor, partial curve, poor fit]
57 | CCOCCCNc1nc(-c2ccc(S(=O)(=O)N3CCCCCC3)cc2)cs1 | inconclusive: 31.6 µM [inhibitor, partial curve, poor fit]
58 | COc1ccc(C(=O)/C(=C/c2ccccn2)c2nc3ccccc3o2)cc1OC | inconclusive: 39.8 µM [inhibitor, single point]
59 | Cc1ccc(C)c(S(=O)(=O)N2CCN(C(=O)CCc3ncc(-c4ccc(F)cc4)o3)CC2)c1 | inactive
60 | O=C([C@H]1CCC[C@H](O)C1)N1CCN(c2ccnc3nncn23)CC1 | inconclusive: 35.5 µM [inhibitor, single point]
61 | N#C/C(=C\c1ccccc1O)C(=O)Nc1cccc(C(F)(F)F)c1 | inactive
62 | Cc1cccc(NC(=O)CSc2nc(N3CCOCC3)c3c(c2C#N)CCCC3)c1 | inactive
63 | CN1CCN(Cc2nnc(C3CCN(C(=O)C4(N)CC4)CC3)n2C)CC1 | inconclusive: 22.4 µM [inhibitor, partial curve, poor fit]
64 | CCn1nc(C(=O)OC/C(O)=C(\C#N)c2nc3ccccc3[nH]2)c2ccccc2c1=O | inactive
65 | Cc1ccc2sc(N(Cc3cccnc3)C(=O)CCS(=O)(=O)c3ccccc3)nc2c1C | inconclusive: 28.2 µM [inhibitor, partial curve, poor fit]
